Source: the RNAGym collection of RNA variant scans (doi:10.7554/elife.90254)
The source gives no read counts; variants with many changes may rest on few reads.

B1: OR4K15 (parent)
chain: GUUAACGGUCAUAGGCCAUGGAAACUAGGAGCACCAUUUCGCUGCCAGUGAAGAAAUGAACAAAGAAAAUCUGGGCCAGGCAGGCAUCAAAAGAAAUAGUCUUGCGCUCAACCAGAAAGUCUGUAAUCAUUUUAAGGGUA

Variants of: B1
Experiment: self-cleavage, relative activity (ratio to wild type); higher = more cleavage; in vitro, sequencing; the parent is a self-cleaving ribozyme
Variant U38C A69G U70C U100C A111G has a self-cleavage of 0.02. Work on U39A A52G A56G A67G A116G U120A yielded a self-cleavage of 0.76. U39C A60G U100C G138A showed a self-cleavage of 1.68. In the case of U39C A55G A126C, the self-cleavage is reported as 1.09. U39C A64G G74A U132C showed a self-cleavage of 0.28. In the case of U39C A114G A118G, the self-cleavage is reported as 0.15. With U38C A47G A82U the self-cleavage was 0.06. Variant U38C U43A G58A has a self-cleavage of 1.78. In the case of U39A A67G A116G, the self-cleavage is reported as 1.18. Work on U37C U124C A140U yielded a self-cleavage of 0.93. With U39C A52G U103C U124C the self-cleavage was 0.44. U39A G53U A56G A82G A96G A110G showed a self-cleavage of 0.02. U37C U70A A96G U102C C105U U122G showed a self-cleavage of 0.44. U38C A62G G74U U131C showed a self-cleavage of 0.12. In the case of U39C A96U U102C, the self-cleavage is reported as 1.37. With U37G A59G A96G A111G the self-cleavage was 0.01. Work on U37C U87A U102C U108C yielded a self-cleavage of 0.01. For U38C A90G A118G, the self-cleavage was 1.88. With U38A C88U A129G the self-cleavage was 1.87. In the case of U39C G65A C85A, the self-cleavage is reported as 1.26. U38C U39C U70C C81U showed a self-cleavage of 0.21. With U39A A114G A126G the self-cleavage was 0.14. Work on U38C A47U A59G A140G yielded a self-cleavage of 0.93. With U38C C40U A92G U97C U127C the self-cleavage was 0.34. In the case of U39C A67U A82U U131C U132A, the self-cleavage is reported as 0.11. U39C A60U A89C U102C U139C gave a self-cleavage of 1.87. U38C C40U U108C A110U gave a self-cleavage of 0.01. For U38A U57C A69G, the self-cleavage was 1.54. Work on U38C A90G U131C yielded a self-cleavage of 0.95. Variant U39A U43A U103C U120G has a self-cleavage of 0.66. U39C A66G G74U showed a self-cleavage of 0.21. U39C A78C A111U gave a self-cleavage of 0.03. U38C A63G U70C A96G gave a self-cleavage of 1.28. U37G U131C A140G showed a self-cleavage of 1.19. In the case of U39C A60G U120C, the self-cleavage is reported as 0.98. Variant U39C A56G A116G has a self-cleavage of 0.63. With U38C U57C A78C G123U the self-cleavage was 0.44. Variant U39C C101U U132C has a self-cleavage of 0.46. Variant U38C A54G U120C has a self-cleavage of 1.04. In the case of U39C U43A U102A, the self-cleavage is reported as 1.08. Variant U39C G41A U70C A78G has a self-cleavage of 0.45. In the case of U39A A47G A94G A126G, the self-cleavage is reported as 0.87. For U39C A51G A60G, the self-cleavage was 0.66. In the case of U38C A82U A135G, the self-cleavage is reported as 0.2. Work on U39A A96C U103A yielded a self-cleavage of 0.55. In the case of U38C A55G A67G U124C U132C, the self-cleavage is reported as 1.02. U39A A51G A98G A116G showed a self-cleavage of 0.25. U38C U127A A129G gave a self-cleavage of 0.9. For U38C A95G A117G, the self-cleavage was 2.09. U38C A78U U122A A126G showed a self-cleavage of 0.1. With U38C A54U A68G U100C the self-cleavage was 2.33. Work on U39A A111U U122A A140G yielded a self-cleavage of 0.02. U39C A60G A63G A89G showed a self-cleavage of 1.43. U39A A95G U122C U139C gave a self-cleavage of 2.15. For U38C A51G A78G U87C A92G, the self-cleavage was 0.25. In the case of U39C A52G C85U A125G, the self-cleavage is reported as 0.14. Variant U39C A63G U132C has a self-cleavage of 1.73. Variant U38C A47G A89U has a self-cleavage of 0.46. For U39C A55G U57C U102C U139C, the self-cleavage was 2.24. In the case of U38C A56G A110G U127A, the self-cleavage is reported as 0.16. Work on U39A U49C A91G A117G A140U yielded a self-cleavage of 0.37. Variant U38A C77U A82U has a self-cleavage of 0.34. For U38C A63G A86U, the self-cleavage was 2.44. Work on U39A U102A U127C yielded a self-cleavage of 0.68. For U39C A68G A92G A129U, the self-cleavage was 1.05. For U38C U124C A125G U130C, the self-cleavage was 1.3. With U39C U43A A68G A69G A82G A117G the self-cleavage was 0.33. With U38C A96G A129G the self-cleavage was 0.78. U39C A96G G106A A114G U127A showed a self-cleavage of 0. For U38C A55G G74A U122C, the self-cleavage was 0.17. U39C C61U U130C U132C A135U gave a self-cleavage of 0.15. Variant U39C A62G U102C has a self-cleavage of 2.13. With U38C C71A C112G G115A U127C the self-cleavage was 0.01. With U39C A89U A92G the self-cleavage was 1.62. U38C U57C U139C gave a self-cleavage of 0.33. Variant U39C A47U A95G U120A has a self-cleavage of 2.26. With U39A A89G A111G the self-cleavage was 0.03. Work on U39C A111G A117G yielded a self-cleavage of 0.01. U38C A55G A95G U100C gave a self-cleavage of 2.64. U38C A51G U130C showed a self-cleavage of 1.06. In the case of U37G U43C A64U A94G U97C, the self-cleavage is reported as 2.08. U39C A55G A68G A78G A114G gave a self-cleavage of 0.05. U39C A63G A96G showed a self-cleavage of 0.52. With U39C U43C A63G A95G U122C the self-cleavage was 1.56.
